# From PubChem BioAssay AID588342 (National Center for Advancing Translational Sciences (NCATS), 2011)
# About 25,000 (6.9%) of roughly 360,000 compounds were called active. Inconclusive results, whose numbers are uncertain, are shown with a selection of clear calls. Calls come from the whole dose curve; as a rule, active = well fitted inhibition curve with a large enough effect; inconclusive = small, poorly fitted or top-dose-only effect; inactive = flat fitted curve, though single readings scatter. Potencies beside an inconclusive call are fits to weak or partial responses and may not hold up.
# Biological target: Luciferin 4-monooxygenase (Photinus pyralis) (UniProt P08659)
# Experiment: qHTS profiling assay for firefly luciferase inhibitor/activator using purifed enzyme and Km concentrations of substrates (counterscreen for miR-21 project); note: nearly all actives have a fitted effect of over 55% in size
# Conditions: purified FLuc, luminescence inhibition; series mostly up to 57.5 µM
# In short: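 Purified P. pyralis luciferase (10nM final) with 10uM D-luciferin and 10uM ATP (Km levels) in 50mM Tris acetate pH 7.5, 10mM Mg acetate, 0.01% Tween-20, 0.05% BSA; qHTS 6-point titration, ~60 µM downward; luminescence read.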
# Potency is the fitted concentration of half-maximal effect; tags give direction and shape of the fitted curve.
# UniProt P08659, sequence (P08659 whole entry, looked up): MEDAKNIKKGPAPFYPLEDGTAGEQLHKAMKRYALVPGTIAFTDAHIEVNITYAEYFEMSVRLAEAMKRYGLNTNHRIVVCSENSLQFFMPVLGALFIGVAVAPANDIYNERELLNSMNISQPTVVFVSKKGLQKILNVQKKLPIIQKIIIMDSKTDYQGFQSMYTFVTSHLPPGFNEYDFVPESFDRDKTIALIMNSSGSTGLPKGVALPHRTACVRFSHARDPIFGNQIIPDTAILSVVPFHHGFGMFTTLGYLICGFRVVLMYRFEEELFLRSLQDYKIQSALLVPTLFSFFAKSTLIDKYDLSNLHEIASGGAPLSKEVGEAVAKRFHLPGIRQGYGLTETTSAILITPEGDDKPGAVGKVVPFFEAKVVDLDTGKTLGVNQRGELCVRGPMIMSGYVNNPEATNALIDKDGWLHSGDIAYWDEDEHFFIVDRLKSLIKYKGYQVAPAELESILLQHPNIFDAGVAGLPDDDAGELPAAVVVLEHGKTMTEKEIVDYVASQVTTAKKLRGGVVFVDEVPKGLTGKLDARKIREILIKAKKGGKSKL
row,Structure (SMILES),Potency
1,COc1ccc(-c2n[nH]c(=S)n2/N=C/C=C/c2ccccc2OC)cc1,inactive
2,CN(C)CCCNc1ncnc2scc(-c3ccccc3)c12,inactive
3,COC(=O)c1ccc2c(c1)N(Cc1ccc(Cl)cc1)C(=O)c1ccccc1S2,inactive
4,Cc1cc(/C=N/Nc2nc(N)ncc2[N+](=O)[O-])c(C)n1-c1cccc(C(F)(F)F)c1,active: 1.51 µM
5,COc1c(C)cc(NC(=O)c2ccc3c(c2)NC(=O)CO3)cc1C,"inconclusive: 26.9 µM [inhibitor, single point]"
6,COc1cccc(/C=N/Nc2ccnc(=O)[nH]2)c1O,active: 16.9 µM
7,CCOc1ccc(C(=O)NCC(=O)Nc2cc(C)ccn2)cc1OCC,"inconclusive: 37.9 µM [inhibitor, partial curve, poor fit]"
8,CCOC(=O)Cc1csc(NC(=O)CC(C)(C)C)n1,"inconclusive: 37.9 µM [inhibitor, partial curve, poor fit]"
9,N=c1oc2cc(O)ccc2cc1C(=O)Nc1ccc(F)cc1,active: 2.69 µM
10,Cc1noc(C)c1C(=O)Nc1nc2ccc(S(C)(=O)=O)cc2s1,active: 1.07 µM
11,CCOC(=O)c1cc(-c2csc(COc3ccccc3)n2)on1,"inconclusive: 37.9 µM [inhibitor, partial curve, poor fit]"
12,CC(C)(C)n1ncc2c(=O)n(CC(=O)NCc3ccc(F)cc3)cnc21,active: 4.26 µM
13,Cc1cc(C(=O)N2CCN(c3cccc(C)c3C)CC2)c2c(C)nn(-c3ccccc3)c2n1,inactive
14,CCOC(=O)c1c(C)[nH]c(C)c1S(=O)(=O)N1CCCC(C(=O)NCc2cccc(OC)c2)C1 (stereo not given),inactive
15,CCOC(=O)c1sc(NC(=O)C2c3ccccc3Oc3ccccc32)c(C#N)c1C,"inconclusive: 9.53 µM [inhibitor, partial curve]"
16,Cc1[nH]c2ccccc2c1C(=O)C(=O)NC1CC1,active: 9.53 µM
17,CCCS(=O)(=O)c1nc(S(=O)(=O)c2ccc(C)cc2)c(N(C)Cc2ccccc2)s1,inactive
18,CC(=O)N1CCN(c2ccc(NCc3ccc(C)s3)cc2)CC1,inactive
19,NC(=O)c1ccccc1N/C=C/C(=O)c1ccc(Cl)cc1Cl,active: 0.19 µM
20,Cc1ccc(Nc2nnc(-c3ccccc3N)o2)cc1C,active: 2.69 µM
21,Oc1[nH]c2ccccc2c1N=NC(=S)N1CCOCC1,"inconclusive: 37.9 µM [inhibitor, partial curve, poor fit]"
22,CN(C(=O)COC(=O)c1ccc2c(c1)OCCO2)C1CCCCC1,"inconclusive: 26.9 µM [inhibitor, partial curve, poor fit]"
23,CCOC(=O)c1cccc(NC(=O)/C=C/c2ccc3c(c2)OCO3)c1,active: 1.9 µM
24,CC(C)NC(=O)N1CCN(S(=O)(=O)c2ccc3c(ccn3C)c2)CC1,inactive
25,Cc1[nH]nc(SCC(=O)N2CCC(C)CC2)c1[N+](=O)[O-],"inconclusive: 26.9 µM [inhibitor, partial curve, poor fit]"

row,Structure (SMILES),Potency
1,CCOC(=O)c1cc(-c2ccc(OC)cc2)n(CCC(=O)NCc2ccc(OC)cc2)c1C,inactive
2,CCCS(=O)(=O)Nc1cccc(-c2nc3cccnc3s2)c1,"inconclusive: 37.9 µM [inhibitor, partial curve, poor fit]"
3,COc1c(Cl)cc(C(=O)Nc2ccc(Cl)cn2)cc1Cl,"inconclusive: 6.75 µM [inhibitor, partial curve, poor fit]"
4,COc1ccc(NC(=O)c2ccc(C)cc2Cl)c([N+](=O)[O-])c1,active: 6.01 µM
5,Cc1c(CCC(=O)NCCc2ccc(Cl)cc2)c(=O)oc2c(C)c(O)ccc12,inactive
6,Cc1cccc(C)c1OCCCn1c(CCNC(=O)C2CCCCC2)nc2ccccc21,inactive
7,COC(=O)c1sc2nc3c(cc2c1N)COC(C)(C)C3,active: 10.7 µM
8,CCOc1ccc(NS(=O)(=O)c2ccc(C(=O)NC3CCN(Cc4ccccc4)CC3)cc2)cc1,"inconclusive: 4.78 µM [inhibitor, partial curve, poor fit]"
9,CCCc1nc2oc3c(NCC(C)O)ncnc3c2c2c1CCCC2 (stereo not given),inactive
10,CC(C)(C)c1ccc(C(=O)NCC(=O)N2CCCC2)cc1,"inconclusive: 30.1 µM [inhibitor, partial curve, poor fit]"
11,Cc1ccc(-n2ncc3ccccc3c2=O)cc1Cl,active: 5.36 µM
12,O=C(NC(=S)NNS(=O)(=O)c1ccc(Cl)cc1)c1cccnc1,"inconclusive: 37.9 µM [inhibitor, partial curve, poor fit]"
13,O=C(CN1C(=O)COc2ccccc21)NCCc1ccc(Cl)cc1,inactive
14,c1ccc(C2=NNC(=NC3CC3)SC2)cc1,active: 1.35 µM
15,CCOC(=O)c1sc(=NC(=O)c2cccc(C)c2)n(C)c1C,"inconclusive: 1.69 µM [inhibitor, full curve]"
16,CCn1nc(C(=O)Nc2nc(-c3ccccn3)cs2)c2ccccc2c1=O,inactive
17,CS(=O)(=O)c1ccc2nc(NC(=O)c3ccc(Cl)cc3)sc2c1,"inconclusive: 7.57 µM [inhibitor, partial curve]"
18,C/C(=N\Nc1nccnc1Cl)c1ccc(Cl)c(Cl)c1,active: 21.3 µM
19,CC1CCc2c(sc3ncnc(NCCCOC(C)C)c23)C1 (stereo not given),"inconclusive: 30.1 µM [inhibitor, partial curve, poor fit]"
20,Cc1ccc(NC(=O)Cc2ccc(F)cc2)cc1,"inconclusive: 21.3 µM [inhibitor, partial curve]"
21,O=C(COc1ccc2c(c1)OCO2)NC12CC3CC(CC(C3)C1)C2,"inconclusive: 26.9 µM [inhibitor, single point]"
22,Cc1nc2sc(C(=O)OC(C)C)c(N)c2c(C)c1C,inactive
23,COc1cc(C(=O)NCc2ccc3[nH]c(C)cc3c2)cc(OC)c1OC,"inconclusive: 26.9 µM [inhibitor, single point]"
24,CN(CC(=O)N1CCCCCC1)S(=O)(=O)c1ccc(F)cc1,"inconclusive: 23.9 µM [inhibitor, single point]"
25,Cc1ccc(-c2nn[nH]n2)cc1,"inconclusive: 23.9 µM [inhibitor, single point]"
